System: BSA
Assay: Anti-BSA antibody responses (ELISA) after i.n. immunization
Settings: i.n. at 0, 7, 21 d, 10 μg BSA/immunization; 28 and 204 d

BSA/PBS: BSA alone in PBS, no adjuvant
anti-BSA fecal IgA, serum IgA and serum IgG responses: little to no

Source: patent US8758763B2, “Archaeal polar lipid aggregates for administration to animals” (National Research Council of Canada, priority 2006, dated 2014)
